The supplement of paper PMC12350171
Synthetic gut communities (20 or 21 species) grown anaerobically with drug for 24 h at the dose given, then challenged with the named pathogen. Pathogen growth (luminescence, or colony counts for V. cholerae) or community OD578 as fold of untreated communities, mean of three; above 1 = more growth. No active / inactive call.

Key:
[1] = test system: Yersinia enterocolitica WA-314 (community: Com20); assay: pathogen growth (luminescence or CFU) in drug-pretreated community relative to untreated community (fold of untreated control); higher = more pathogen expansion
[2] = test system: Yersinia pseudotuberculosis YPIII (community: Com20); assay: as above
[3] = test system: Vibrio cholerae A1552 (community: Com20); assay: as above
[4] = test system: Salmonella enterica Typhimurium (community: Com21 (Com20 + E. coli ED1a)); assay: as above
[5] = test system: Escherichia coli CFT073 (community: Com20); assay: as above
[6] = test system: Shigella flexneri 24570 (community: Com20); assay: as above
[7] = test system: Klebsiella pneumoniae MKP103 (community: Com20); assay: as above
[8] = test system: Salmonella enterica Typhimurium in Com20; assay: S. Typhimurium luminescence in drug-pretreated Com20 relative to untreated Com20 (fold of untreated control); higher = more pathogen expansion
[9] = test system: Com20 synthetic gut community; assay: Com20 community biomass OD578 after 24 h drug treatment relative to untreated (fraction of untreated control); higher = more community growth
[10] = drug pretreatment concentration 10 µM
[11] = drug pretreatment concentration 20 µM
[12] = drug pretreatment concentration 40 µM
[13] = drug pretreatment concentration 80 µM
[14] = drug pretreatment concentration 100 µM
[15] = drug pretreatment concentration 160 µM

For `O=c1[nH]c(=O)n([C@H]2C[C@H](O)[C@@H](CO)O2)cc1F` [Floxuridine], the pathogen growth [1, 10] was 3.81, the pathogen growth [1, 11] was 6.75 and the pathogen growth [1, 12] was 11.9. For the same compound, the pathogen growth [1, 13] was 12.4, the pathogen growth [1, 14] was 15.4 and the pathogen growth [2, 10] was 4.24. For the same compound, the pathogen growth [2, 11] was 6.7, the pathogen growth [2, 12] was 12.4 and the pathogen growth [2, 13] was 14.6. The pathogen growth [2, 14] was 16.5, the pathogen growth [3, 10] was 5.63 and the pathogen growth [3, 11] was 6.2. For the same compound, the pathogen growth [3, 12] was 9.48, the pathogen growth [3, 13] was 6.28 and the pathogen growth [3, 14] was 8.75. It also gave a pathogen growth [4, 10] of 2.95, a pathogen growth [4, 11] of 3.22 and a pathogen growth [4, 12] of 3.7. The pathogen growth [4, 13] was 3.89, the pathogen growth [4, 15] was 4.6 and the pathogen growth [5, 10] was 6.55. It also gave a pathogen growth [5, 11] of 10.8, a pathogen growth [5, 12] of 12.8 and a pathogen growth [5, 13] of 8.61. It also gave a pathogen growth [5, 14] of 9.48, a pathogen growth [6, 10] of 13.7 and a pathogen growth [6, 11] of 29.6. It also gave a pathogen growth [6, 12] of 33.2, a pathogen growth [6, 13] of 15.9 and a pathogen growth [6, 14] of 14.7. For the same compound, the pathogen growth [7, 10] was 6.83, the pathogen growth [7, 11] was 13.1 and the pathogen growth [7, 12] was 14.4. The pathogen growth [7, 13] was 7.25, the pathogen growth [7, 14] was 8.57 and the “S. Typhimurium luminescence” value [8, 10] was 10.1. For the same compound, the “S. Typhimurium luminescence” value [8, 11] was 9.29, the “S. Typhimurium luminescence” value [8, 12] was 5.45 and the “S. Typhimurium luminescence” value [8, 13] was 3.9. For the same compound, the “S. Typhimurium luminescence” value [8, 15] was 1.71, the “Com20 community biomass OD578” value [9, 10] was 0.95 and the “Com20 community biomass OD578” value [9, 11] was 0.885. The “Com20 community biomass OD578” value [9, 12] was 0.893, the “Com20 community biomass OD578” value [9, 13] was 0.853 and the “Com20 community biomass OD578” value [9, 15] was 0.883.
For `O=C1NCCN1CCN1CCC(c2cn(-c3ccc(F)cc3)c3ccc(Cl)cc23)CC1` [Sertindole], the pathogen growth [1, 10] was 1.03, the pathogen growth [1, 11] was 1.16 and the pathogen growth [1, 12] was 1.31. It also gave a pathogen growth [1, 13] of 65.9, a pathogen growth [2, 10] of 1.16 and a pathogen growth [2, 11] of 1.17. The pathogen growth [2, 12] was 1.57, the pathogen growth [2, 13] was 82.2 and the pathogen growth [3, 10] was 1.1. For the same compound, the pathogen growth [3, 11] was 0.864, the pathogen growth [3, 12] was 1.08 and the pathogen growth [3, 13] was 21.6. It also gave a pathogen growth [4, 10] of 1.6, a pathogen growth [4, 11] of 1.54 and a pathogen growth [4, 12] of 0.983. The pathogen growth [4, 13] was 2.02, the pathogen growth [4, 15] was 5.69 and the pathogen growth [5, 10] was 1.06. It also gave a pathogen growth [5, 11] of 1.06, a pathogen growth [5, 12] of 1.12 and a pathogen growth [5, 13] of 21.6. The pathogen growth [6, 10] was 1.2, the pathogen growth [6, 11] was 1.01 and the pathogen growth [6, 12] was 1.02. The pathogen growth [6, 13] was 68.8, the pathogen growth [7, 10] was 0.974 and the pathogen growth [7, 11] was 0.973. For the same compound, the pathogen growth [7, 12] was 1.12, the pathogen growth [7, 13] was 22.1 and the “S. Typhimurium luminescence” value [8, 10] was 1.37. For the same compound, the “S. Typhimurium luminescence” value [8, 11] was 1.26 and the “S. Typhimurium luminescence” value [8, 12] was 1.66.
